# Results taken from the supplement of paper PMC3334620.
# In all, about 33,000 sequences were measured (“E-score (-0.5 to 0.5)”: median about -0.054, highest 2% from about 0.39 on). The list shows a part of the results.
# Biological target: Ylr278c (UniProt Q05854)
# Experiment: PBM E-score (8-mer binding enrichment) (E-score (-0.5 to 0.5)); higher = stronger / more preferred TF binding; most listed sequences are background and not binding sites
# Conditions: protein concentration: 200 nM; construct: GST-DNA-binding domain
# Procedure, shortened: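 Universal all-10-mer Agilent arrays, double-stranded by primer extension on fresh or once-stripped slides, were probed with about 100-200 nM GST-tagged yeast transcription factors made by PURExpress. Fluorescent anti-GST detected bound protein, and masliner normalised the scans. E-scores from the Universal PBM Analysis Suite were given to each ungapped eight-base word pooled with its reverse complement.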
row,Sequence,PBM E-score
1,GGTCCTCA,0.178
2,AATGGCAG,-0.0973
3,AGGTGACA,-0.211
4,ACATAACA,-0.00458
5,ATATTTGA,-0.231
6,ATGCCTTA,-0.332
7,AGTCACCA,-0.159
8,CCCGTCTA,0.0475
9,GAGGGGAC,-0.0234
10,CGATTAAC,0.0875
11,CATTACCG,0.136
12,ACAGACCG,0.169
13,ACACATCA,0.0404
14,TCTGGACA,-0.186
15,ACTGTCTC,-0.162
16,ACTTAAGT,-0.0988
17,ACAGAGCG,-0.209
18,ATTGTGCG,0.0269
19,AGGATTCG,0.0905
20,AGCTTCGA,-0.135
21,CATGAGTA,-0.182
22,ATTGCCGA,0.278

row,Sequence,PBM E-score
1,AGCCTGCA,-0.0771
2,CTATATAG,-0.289
3,CCAATTTA,0.111
4,AGAATGGA,-0.0313
5,CTTCCCCA,-0.166
6,CTAAAGTA,-0.14
7,GGTGTACA,0.0261
8,AACGCCTC,-0.186
9,CCAGTAAC,0.0134
10,CGCTTATC,-0.0789
11,ACCCGTAG,-0.185
12,ACAACCTC,-0.084
13,ATCGCAAG,-0.113
14,CAGGGGCG,-0.178
15,AACGACCT,-0.0366
16,CTGTGTGA,-0.0723
17,CATTGCGG,0.153
18,TTCATGAA,-0.17
19,GCGTGTGA,0.0418
20,CAGCGCGA,-0.182
21,CGCTACCG,0.208
22,AGCATAGC,-0.317

row,Sequence,PBM E-score
1,GGTCTCTA,-0.21
2,GGAGTAAC,0.274
3,AGCGATCA,-0.00061
4,AAAGCAGG,-0.07
5,GCATCCCA,-0.0799
6,GGTTGGTA,-0.0346
7,CATGGGGG,-0.172
8,TGCCGGCA,0.347
9,GCCCCGAA,0.301
10,CTATGATA,-0.155
11,CAGCTCTA,-0.124
12,AAACGGGA,0.304
13,AAAAATCG,-0.0603
14,AAGCTCCT,-0.0423
15,AAGTTCCG,0.42
16,GTGCAGGA,-0.185
17,TACTGAGA,-0.179
18,ACTTCTTA,0.0214
19,GTCGTTTA,0.00681
20,ACCCCAGT,0.161
21,AGATGATG,-0.0971
22,CAGGAAGG,-0.232

row,Sequence,PBM E-score
1,CTTCCATA,-0.266
2,CAGGTAGA,-0.0589
3,GGCCGTTA,0.127
4,GGGGGGCA,-0.37
5,TGACCCCA,-0.0702
6,GGCTAGCC,-0.226
7,AGTTAACG,-0.107
8,ACGGGCTG,-0.0606
9,TCGGTAGA,0.094
10,CAGTCTAA,-0.108
11,AAAATCTT,-0.102
12,AGAGGGAG,-0.197
13,ACCGGCAC,0.297
14,ACAGTGAG,-0.301
15,CTTAGACC,-0.143
16,AATTACCT,-0.0492
17,GGGCATTA,-0.0729
18,CTTAGCTC,0.119
19,CCTTCCAC,-0.187
20,GCTCACTA,-0.239
